No constants are given. Whether binding was seen depends on the method and setting. Binding seen in cells or lysates may run through a third protein. Some results given as binding are weak or reduced against the parent protein; the word gives no strength. Tags and fused reporters may be left off the sequences shown.
Assays:
Test in all cases: co-IP; small-scale TAP purification: C-terminally TAP-tagged Vps8 or Vps3 (full-length or truncated) captured from yeast lysate (50 mM HEPES/KOH pH 7.4, 300 mM NaCl, 0.15% NP-40, 2 mM MgCl2, 1 mM DTT) on IgG beads, 1.5 h at 4°C; eluted with glycine pH 2.5 or TEV protease; Western blot with anti-Cbp, anti-HA, anti-Vps11; also with overproduced Vps8ΔN and from vps21Δ and vps21Δ ypt52Δ ypt53Δ ypt7Δ strains
[1] = target: T1, Vps8-TAP (full-length Vps8, C-terminal TAP tag) (yeast (genomic locus of BY4741/BY4733 strains)) (UniProt P39702)
T1 sequence: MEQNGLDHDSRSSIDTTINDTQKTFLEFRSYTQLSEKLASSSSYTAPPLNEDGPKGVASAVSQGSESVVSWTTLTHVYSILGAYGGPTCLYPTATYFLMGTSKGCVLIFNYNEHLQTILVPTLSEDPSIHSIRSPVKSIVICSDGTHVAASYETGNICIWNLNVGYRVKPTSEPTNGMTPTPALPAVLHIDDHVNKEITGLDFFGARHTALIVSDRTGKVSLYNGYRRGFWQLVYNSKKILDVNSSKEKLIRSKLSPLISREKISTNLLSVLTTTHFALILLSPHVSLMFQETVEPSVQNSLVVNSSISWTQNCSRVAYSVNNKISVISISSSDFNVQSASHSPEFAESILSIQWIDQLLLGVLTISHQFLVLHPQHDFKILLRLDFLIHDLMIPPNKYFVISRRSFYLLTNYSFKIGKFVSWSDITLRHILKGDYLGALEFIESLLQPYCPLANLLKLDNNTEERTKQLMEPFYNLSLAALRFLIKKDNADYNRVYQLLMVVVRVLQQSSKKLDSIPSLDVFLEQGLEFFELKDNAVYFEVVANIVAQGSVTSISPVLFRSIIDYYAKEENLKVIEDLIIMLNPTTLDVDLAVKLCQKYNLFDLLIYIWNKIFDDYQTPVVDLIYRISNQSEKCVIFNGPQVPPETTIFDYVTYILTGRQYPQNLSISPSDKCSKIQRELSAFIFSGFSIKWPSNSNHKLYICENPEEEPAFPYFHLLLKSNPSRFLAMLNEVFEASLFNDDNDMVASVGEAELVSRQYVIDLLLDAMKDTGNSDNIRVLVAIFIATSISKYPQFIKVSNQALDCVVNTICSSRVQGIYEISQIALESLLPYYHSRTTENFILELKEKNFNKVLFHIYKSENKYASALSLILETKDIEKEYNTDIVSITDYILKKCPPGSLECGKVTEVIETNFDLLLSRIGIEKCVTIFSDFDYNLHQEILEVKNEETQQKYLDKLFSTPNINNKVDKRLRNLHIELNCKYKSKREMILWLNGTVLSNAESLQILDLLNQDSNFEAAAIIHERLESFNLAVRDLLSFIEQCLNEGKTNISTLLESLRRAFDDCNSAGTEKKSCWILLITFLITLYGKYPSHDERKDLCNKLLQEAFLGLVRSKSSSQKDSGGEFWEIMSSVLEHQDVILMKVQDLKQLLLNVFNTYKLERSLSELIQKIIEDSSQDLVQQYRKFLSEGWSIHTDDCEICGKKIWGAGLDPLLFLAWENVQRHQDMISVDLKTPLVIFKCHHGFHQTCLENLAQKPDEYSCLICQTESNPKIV

[2] = target: T2, Vps8ΔN-TAP (C-terminal domain of Vps8, from residue 451, C-terminal TAP tag) (yeast (genomic locus of BY4741/BY4733 strains)) (UniProt P39702)
T2 sequence: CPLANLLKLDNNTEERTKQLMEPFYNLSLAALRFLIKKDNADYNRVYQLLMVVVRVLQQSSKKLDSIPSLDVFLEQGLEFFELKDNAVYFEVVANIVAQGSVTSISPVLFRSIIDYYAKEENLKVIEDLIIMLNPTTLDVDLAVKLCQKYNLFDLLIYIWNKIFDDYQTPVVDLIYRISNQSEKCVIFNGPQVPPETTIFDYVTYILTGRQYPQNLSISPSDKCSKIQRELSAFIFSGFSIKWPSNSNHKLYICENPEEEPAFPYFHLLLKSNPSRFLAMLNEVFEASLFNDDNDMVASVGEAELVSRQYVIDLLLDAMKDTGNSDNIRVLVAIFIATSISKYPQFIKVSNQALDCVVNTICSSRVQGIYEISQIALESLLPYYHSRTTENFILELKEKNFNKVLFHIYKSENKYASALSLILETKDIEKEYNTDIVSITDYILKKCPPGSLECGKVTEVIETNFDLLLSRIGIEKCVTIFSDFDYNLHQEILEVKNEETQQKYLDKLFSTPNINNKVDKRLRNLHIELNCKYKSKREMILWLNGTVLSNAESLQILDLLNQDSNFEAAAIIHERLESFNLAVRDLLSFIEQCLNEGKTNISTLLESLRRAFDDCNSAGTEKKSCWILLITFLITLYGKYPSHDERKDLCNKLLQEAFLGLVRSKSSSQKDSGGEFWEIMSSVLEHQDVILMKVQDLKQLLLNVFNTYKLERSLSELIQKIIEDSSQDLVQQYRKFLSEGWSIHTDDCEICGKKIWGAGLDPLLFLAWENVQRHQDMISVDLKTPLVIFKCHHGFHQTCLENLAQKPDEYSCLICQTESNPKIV

[3] = target: T3, Vps8ΔC-TAP (N-terminal domain of Vps8, up to residue 450, C-terminal TAP tag) (yeast (genomic locus of BY4733 strains)) (UniProt P39702)
T3 sequence: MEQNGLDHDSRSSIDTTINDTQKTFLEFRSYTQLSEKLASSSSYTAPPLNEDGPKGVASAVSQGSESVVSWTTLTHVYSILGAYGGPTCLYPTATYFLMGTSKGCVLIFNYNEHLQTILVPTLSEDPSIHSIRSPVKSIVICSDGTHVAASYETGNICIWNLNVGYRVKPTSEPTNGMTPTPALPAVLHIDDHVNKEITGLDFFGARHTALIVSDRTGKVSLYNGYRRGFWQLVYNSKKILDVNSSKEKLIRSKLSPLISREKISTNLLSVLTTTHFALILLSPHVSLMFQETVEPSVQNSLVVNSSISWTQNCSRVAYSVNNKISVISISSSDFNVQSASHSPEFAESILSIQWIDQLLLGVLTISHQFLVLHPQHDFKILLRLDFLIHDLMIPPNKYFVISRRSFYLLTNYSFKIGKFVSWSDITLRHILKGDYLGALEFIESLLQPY

- binding [1]: binds
- binding [2]: binds
- binding [3]: no binding
B1: Vps3-3HA (full-length Vps3, C-terminal 3xHA tag) (protein, UniProt P23643 1-1011)
chain: MVKKKTNNDKGKEVKENEGKLDIDSESSPHERENDKKKTEDDSLRATESEETNTHNANPNETVRADKFSQEESRPIEDSPHTDKNTAQESCQPSSAEDNVINTDITSLNEKTSTNDEQEKGLPLKISEGPFTISTLLDNVPSDLIYTCCEAYENHIFLGTTTGDLLHYFELERGNYMLVSQTKFDAESNSKIDKILLLPKVEGALILCDNELVLFILPEFAPRPNTTRLKGISDVVICNFSRSSKAYRIYAFHAEGVRLLKISADSLVLTKAFNFKLIDKACAHEETLMVSKLNSYELINLKSSQVIPLFRISETDEDLEPIITSFNEQSEFLVCSGGGSYDSGAMALVVNHHGDIIKGTIVLKNYPRNVIVEFPYIIAESAFQSVDIYSALPSEKSQLLQSITTSGSDLKISKSDNVFTNTNNSEEFKEKIFNKLRLEPLTHSDNKFRIERERAFVEESYEEKTSLIVYNNLGIHLLVPTPMVLRFTSCEESEIDNIEDQLKKLAKKDLTKFEHIEAKYLMSLLLFLMTLHYDHIEDEVMKKWCDFSDKVDIRILFYMFGWKVYSEIWCFHGLINIVERLKSLKLTNKCENILKMLLMMKNELKKKNKTGLLTNDFDDIMKTIDITLFKLRLEKKETITVDMFERESYDEIIREINLHDDKLPRIELLIEIYKEKGEYLKALNLLREAGDYISLVSFIEENLKKLPEDYIKERIADDLLLTLKQGDENTEECAIKKVLKILDMACINKNDFLNKIPAEETSLKVSFIEQLGVQNSNDSKFLFNYYLAKLREIINQSNIWSILGDFIKEYKDDFAYDKTDITNFIHIKLKHSLQCENFSKYYEKCENLKSENEKDDEFINFTFDEISKIDKEHILTLLFFPNELTNWVSSEELLKIYLSFNDFRSVEKYIGKQNLVAVMKQYLDISSLNYSVELVTNLLQRNFELLDDTDIQLKILETIPSVFPVQTISELLLKVLIKYQEKKEESNLRKCLLKNQISISDELSRNFDSQG

— PMC3688683, “The N-Terminal Domains of Vps3 and Vps8 Are Critical for Localization and Function of the CORVET Tethering Complex on Endosomes” (PLoS ONE, 2013)
